Data reported in patent US8613927B2, “High affinity human antibodies to human nerve growth factor” (Regeneron Pharmaceuticals, Inc., priority 2007, dated 2013).

T1: human NT-3 (Homo sapiens, UniProt P20783)
T1 sequence (P20783 139-257): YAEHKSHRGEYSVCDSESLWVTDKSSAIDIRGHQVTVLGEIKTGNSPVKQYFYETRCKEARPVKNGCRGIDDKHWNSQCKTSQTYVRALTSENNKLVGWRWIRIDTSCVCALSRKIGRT

B1: REGN472: HCVR/LCVR SEQ ID NO:100/102 and hIgG1 SEQ ID NO:541 (antibody)
heavy: QVQLVQSGAEVKKPGASVKVSCKVSGFTLTELSMHWVRQAPGKGLEWMGGFDPEDGETIYAQKFQGRVTMTEDTSTDTAYMELSSLRSEDTAVYYCSTIFGVVTNFDNWGQGTLVTVSS[human IgG1 constant region omitted here]
VL: DIQMTQSPSSLSASVGDRVTITCRASQAIRNDLGWYQQKPGKAPKRLIYAAFNLQSGVPSRFSGSGSGTEFTLTISSLQPEDFATYYCQQYNRYPWTFGQGTKVEIKR
B2: REGN474: HCVR/LCVR SEQ ID NO:100/102 and mutant hIgG4 SEQ ID NO:543 (antibody)
heavy: QVQLVQSGAEVKKPGASVKVSCKVSGFTLTELSMHWVRQAPGKGLEWMGGFDPEDGETIYAQKFQGRVTMTEDTSTDTAYMELSSLRSEDTAVYYCSTIFGVVTNFDNWGQGTLVTVSSASTKGPSVFPLAPCSRSTSESTAALGCLVKDYFPEPVTVSWNSGALTSGVHTFPAVLQSSGLYSLSSVVTVPSSSLGTKTYTCNVDHKPSNTKVDKRV[human IgG4 Fc with S228P (EU numbers) omitted here]
VL: B1 VL
B3: REGN477: HCVR/LCVR SEQ ID NO:232/234 and mutant hIgG4 SEQ ID NO:543 (antibody)
heavy: EVQLVESGGGLVQPGRSLRLSCAAPGFNFDDYAMHWVRQTPGKGLEWVSGISWNSGTIGYADSVKGRFTISRDNAKNSLYLQMNSLRPEDTALYYCAKEGVWFGKLFSSYGMDVWGQGTTVTVSSASTKGPSVFPLAPCSRSTSESTAALGCLVKDYFPEPVTVSWNSGALTSGVHTFPAVLQSSGLYSLSSVVTVPSSSLGTKTYTCNVDHKPSNTKVDKRV[human IgG4 Fc with S228P (EU numbers) omitted here]
VL: EIVMTQSPATLSVSPGERATLSCRASQSVTYNLDWYQQKPGQAPRLLIFGASTRATGIPARFSGSGSGTEFTLTITSLQSEDFAVYYCQQYNNWPYTFGQGTKLEIKR

The molecules below were run against T1, human NT-3 (assay: BIACORE cross-reactivity test, NT-3). Conditions: NT-3 1.25 nM to 40 nM; purified antibodies.
Assay type: binding
Procedure: The anti-NGF antibodies were examined for binding cross-reactivity with human NT-3. Briefly, goat anti-human IgG polyclonal antibody was chemically linked to a CM5 chip. Anti-NGF monoclonal antibodies were injected forming a surface of about 50 to 900 RU of immobilized antibody through the interaction with the chip coupled polyclonal antibodies. […] Both association and dissociation phases were monitored and data were analyzed. Results are shown in Table 3 (NB=no binding activity observed).
For B1, the “affinity for NT-3” value was “none of the test antibodies exhibited measurable affinity”. For B2, the “affinity for NT-3” value was “none of the test antibodies exhibited measurable affinity”. In the case of B3, the “affinity for NT-3” value is reported as “none of the test antibodies exhibited measurable affinity”.
